Assay results published in PubChem BioAssay AID1347430 (National Center for Advancing Translational Sciences (NCATS), 2020).
About 130 (0.14%) of roughly 91,000 compounds were called active. The inconclusive results got no clear call from the source; some entries with a clear call stand among them for comparison. Calls come from the whole dose curve; as a rule, active = well fitted inhibition curve with a large enough effect; inconclusive = small, poorly fitted or top-dose-only effect; inactive = flat fitted curve, though single readings scatter. Potencies beside an inconclusive call are fits to weak or partial responses and may not hold up.

Tested on: Uracil-DNA glycosylase
Assay: Primary qHTS assay for inhibitors of Activation Induced Cytidine Deaminase (AID): UDG Counterscreen signal; note: nearly all actives have a fitted effect of over 65% in size
Details: FRET deamination/UDG coupled assay, UDG read, 4 h; series mostly up to 115 µM
Potency is the fitted concentration of half-maximal effect; tags give direction and shape of the fitted curve.

Row | SMILES | Potency
1 | Cc1ccc(/C=C(\C#N)C(=O)Nc2cc(C)ccc2C)cc1 | inconclusive: 100 µM [inhibitor, single point]
2 | CCN(CC)c1ccc(C(=O)NCc2ccc3c(c2)CCN3C(=O)c2ccccc2)cc1 | inactive
3 | Cc1cccc(OCC(=O)Nc2cc(-c3nn(C)c(=O)c4ccccc34)ccc2N2CCCCC2)c1 | inconclusive: 79.4 µM [inhibitor, partial curve, poor fit]
4 | O=C(CCC(=O)N1CC2CCCN2c2ccccc21)NCc1ccccc1Cl (stereo not given) | inconclusive: 89.1 µM [inhibitor, single point]
5 | CCCCNC(=S)NC1CCCCC1 | inactive
6 | CCOC(=O)N1CCN(C(=O)c2ccc(N3C(=O)CCS3(=O)=O)cc2Cl)CC1 | inactive
7 | COC(=O)c1cc2oc3ccccc3c2n1Cc1cccc(C)c1 | inconclusive: 89.1 µM [inhibitor, single point]
8 | Cc1ccc(C)c(N2CCN(C(=O)c3cc4ccc5cccnc5c4[nH]3)CC2)c1 | inactive
9 | Cc1ccc(OCC(=O)Nc2ccc(Cl)c(-c3nc4ncccc4o3)c2)cc1C | inactive
10 | COc1cc(C(=O)NCC(c2ccc(N(C)C)cc2)N2CCc3ccccc32)cc(OC)c1OC (stereo not given) | inconclusive: 79.4 µM [inhibitor, partial curve, poor fit]
11 | CCCn1c(=O)[nH]c(=O)c2c1nc(-c1ccc(C#N)cc1)n2CCN1CCOCC1 | inactive
12 | Cc1ccc(N2NC3(CCCCC3)NC2=S)cc1 | inactive
13 | O=C(O)CCNS(=O)(=O)c1ccc(C(=O)/C=C/c2ccccc2Cl)cc1 | inactive
14 | Cc1ccc(-c2nnc(Nc3ccc(Br)cc3)c3ccccc23)cc1S(=O)(=O)N1CCCCC1 | inconclusive: 89.1 µM [inhibitor, partial curve, poor fit]
15 | Cc1nc2ccc(S(=O)(=O)CCC(=O)Nc3ccc(F)cc3C)cc2s1 | inconclusive: 89.1 µM [inhibitor, single point]
16 | Cc1ccc(C2=Nc3ccccc3NC(c3ccncc3)=N2)cc1 | inconclusive: 89.1 µM [inhibitor, partial curve, poor fit]
17 | COc1ccc(NS(=O)(=O)c2ccc(NC(=O)N3CCCC3)cc2)cc1 | inactive
18 | CC(=O)Nc1ccc(NC(=O)c2cc(-c3ccccn3)nc3ccccc23)cc1 | inconclusive: 89.1 µM [inhibitor, single point]
19 | CCN(CCCNC(=O)c1cc2c(=O)n(CC)c3ccccc3c2s1)c1cccc(C)c1 | inactive
20 | Oc1ccc(O)c(C2C[C@@H]3CC[C@H]2C3)c1 (stereo not given in full) | inconclusive: 20 µM [inhibitor, full curve, poor fit]
21 | C/C(=N\NC(=O)Cc1cccs1)c1ccc2ccccc2c1 | inactive
22 | CCC(=O)Nc1ccc2nc(SCc3ccc(C)cc3)sc2c1 | inconclusive: 79.4 µM [inhibitor, single point]
23 | CCOc1ccc(CN(C(=O)c2cc(=O)c3cc(Cl)ccc3o2)C2CCS(=O)(=O)C2)cc1 (stereo not given) | inconclusive: 44.7 µM [inhibitor, single point]
24 | COc1ccc(NC(=O)Cn2c(-n3nc(C)cc3C)nc(C)cc2=O)cc1 | inconclusive: 89.1 µM [inhibitor, single point]

Row | SMILES | Potency
25 | CCc1cc(=O)oc2c(C)c3c(cc12)CN(CCc1ccccc1)CO3 | inconclusive: 100 µM [inhibitor, single point]
26 | Cc1cc(Sc2ccc(NC(=O)c3cccc(Cl)c3)cc2)c2ccccc2n1 | inactive
27 | N#C/C(=C/c1ccccc1OC(F)F)c1nc2cc(C(F)(F)F)ccc2s1 | inactive
28 | O=S(=O)(Cc1ccccc1)c1ccc2ccccc2c1 | inactive
29 | Cc1cc(O)c2c(C)c(CC(=O)N3CCCCC3)c(=O)oc2c1 | inconclusive: 100 µM [inhibitor, single point]
30 | Cc1ccc(NC(=O)Cn2c(=O)oc3cc(S(=O)(=O)N4CCCCC4)ccc32)c(C)c1 | inactive
31 | O=c1c2ccccc2n(Cc2c(F)cccc2Cl)c(=O)n1Cc1ccccc1 | inconclusive: 79.4 µM [inhibitor, partial curve, poor fit]
32 | Cc1ccc2oc(-c3ccc(C)c(NC(=O)COc4ccccc4)c3)nc2c1 | inconclusive: 100 µM [inhibitor, single point]
33 | Ic1ccc(N2CCN(Cc3c[nH]c4ncccc34)CC2)cc1 | inactive
34 | O=C(CSc1nccn1-c1cccc(Cl)c1)Nc1cccc(C(F)(F)F)c1 | inactive
35 | COc1cc2ccccc2cc1C(=O)N1CCN(c2nc3c(C)cc(C)cc3s2)CC1 | inconclusive: 89.1 µM [inhibitor, partial curve, poor fit]
36 | COc1ccc(CNC(=S)NCC(C)N2CCCCC2C)cc1 (stereo not given) | inactive
37 | CC(NC(=O)CSc1n[nH]c(-c2ccccc2Cl)n1)c1nc2ccccc2n1C (stereo not given) | inconclusive: 89.1 µM [inhibitor, single point]
38 | COc1c(C)cc(S(=O)(=O)Nc2cccc(-c3ccc(N4CCOCC4)nn3)c2)c(C)c1C | inconclusive: 89.1 µM [inhibitor, single point]
39 | CCN(CC)C(=O)CNC(=O)c1cc2ccccc2c(OC)n1 | inactive
40 | COc1ccc(Cl)cc1CNCCSc1nnnn1C | inactive
41 | CCCNC(=O)c1ccc2c(c1)sc1nc(-c3ccc(C)cc3)cn12 | inconclusive: 79.4 µM [inhibitor, single point]
42 | Cc1ccc(C)c(N2CCN(C(=O)C3CCCN(Cc4nc(-c5cccc(Cl)c5)oc4C)C3)CC2)c1 (stereo not given) | inconclusive: 89.1 µM [inhibitor, single point]
43 | Cc1ccc(-c2cn(-c3cccc(Cl)c3)c(S(=O)(=O)CC(=O)Nc3cccc(C)c3)n2)cc1 | inconclusive: 10 µM [inhibitor, full curve, poor fit]
44 | COc1ccc(-c2nnc(SCC(=O)NC3CCCC3)nc2-c2ccc(OC)c(OC)c2)cc1OC | inconclusive: 79.4 µM [inhibitor, partial curve, poor fit]
45 | CCOC(=O)c1scc(-c2ccc(C)cc2)c1S(=O)(=O)N1CCN(c2ccccc2F)CC1 | inconclusive: 89.1 µM [inhibitor, partial curve, poor fit]
46 | O=C(CCC1N=C2c3ccccc3N=C(SCc3cccc(F)c3)N2C1=O)NCc1cccs1 (stereo not given) | inconclusive: 89.1 µM [inhibitor, single point]
47 | CCOc1ccc(C(=O)NCC(c2ccco2)S(=O)(=O)c2cccs2)cc1 (stereo not given) | inconclusive: 79.4 µM [inhibitor, partial curve]
48 | CCCCOC(=O)CSc1nnc(-c2ccc(C)cc2)o1 | inconclusive: 89.1 µM [inhibitor, single point]

Row | SMILES | Potency
49 | Cc1ccc(Cl)cc1NC(c1ccc(F)cc1)c1nnc(-c2ccccc2)o1 (stereo not given) | inconclusive: 89.1 µM [inhibitor, partial curve, poor fit]
50 | Cc1cccc(OCCn2c(-c3ccc(Cl)cc3)nc3ccccc3c2=O)c1 | inconclusive: 100 µM [inhibitor, single point]
51 | CC1Cc2cc(S(=O)(=O)N3CCN(c4ccccc4F)CC3)ccc2N1C(=O)C1CCC1 (stereo not given) | inconclusive: 89.1 µM [inhibitor, partial curve, poor fit]
52 | CCCn1ccc2c(OCC(=O)NCc3ccc(C)cc3)cccc2c1=O | inactive
53 | COc1ccc(CNC(=O)c2cnc3sc(N4CCCC4)nn3c2=O)cc1OC | inactive
54 | Cc1ccc2c(c1)C(c1ccc(F)cc1)N(C(=O)COc1ccc(Cl)cc1Cl)CC(=O)N2 (stereo not given) | inconclusive: 22.4 µM [inhibitor, partial curve, poor fit]
55 | CSc1nnc(-c2ccccc2NC(=O)c2cccc(S(=O)(=O)N3CCCCC3)c2)o1 | inconclusive: 89.1 µM [inhibitor, single point]
56 | CCC(C(=O)NCCc1ccc(SC)cc1)n1nc(C)c2sc3ccccc3c2c1=O (stereo not given) | inconclusive: 89.1 µM [inhibitor, single point]
57 | CCCOc1ccc(C(=O)N(Cc2ccc(C(C)C)cc2)C2CCS(=O)(=O)C2)cc1 (stereo not given) | inactive
58 | CCOc1ccccc1N(CC)C(=O)c1cc2c(=O)[nH]c3ccc(C)cc3c2s1 | inconclusive: 89.1 µM [inhibitor, single point]
59 | CCOC(=O)c1cnc2c(C)c(Cl)ccc2c1NCCc1ccccc1 | inconclusive: 100 µM [inhibitor, single point]
60 | COc1ccccc1CNC(=O)c1cccc(S(=O)(=O)N2CCc3ccccc3C2)c1 | inactive
61 | Cc1ccc(-n2c(Cc3ccccc3)nnc2SCc2nc(-c3cccs3)no2)cc1 | inconclusive: 56.2 µM [inhibitor, partial curve, poor fit]
62 | CN1C(=O)Cc2cc(S(=O)(=O)N3CCN(c4ccccc4F)CC3)ccc21 | inconclusive: 3.98 µM [inhibitor, full curve, poor fit]
63 | COc1ccccc1/C=C/c1nc2ccccc2n1C(C)C | inconclusive: 79.4 µM [inhibitor, partial curve, poor fit]
64 | Cc1nn(-c2ccccc2)c(OC(=O)C(C)C)c1Sc1ccc(Cl)cc1 | inactive
65 | Cc1oc(-c2nc(C#N)c(NCCCN(C)C)o2)cc1S(=O)(=O)N1CCCC1 | inactive
66 | N=C1C(c2nc(-c3ccc(Cl)cc3)cs2)=C(O)CN1NC(=O)c1ccc(O)cc1 | inconclusive: 89.1 µM [inhibitor, single point]
67 | Oc1ccc(C(c2c[nH]c3ccccc23)c2c[nH]c3ccccc23)cc1 | inactive
68 | O=C(/C=C/c1ccc(O)cc1)c1cccc(Br)c1 | inactive
69 | COC(=O)c1ccccc1NC(=O)N1CC(C)Oc2ccc(C)cc21 (stereo not given) | inactive
70 | Cc1ccccc1C(=O)c1cccn1CC(=O)NCc1ccccc1 | inconclusive: 0.158 µM [inhibitor, full curve]
